Results published in PubChem BioAssay AID493014 (National Center for Advancing Translational Sciences (NCATS), 2011).
About 170 (0.05%) of roughly 340,000 compounds were called active. Not shown: some 26% with an inconclusive outcome. The call rests on the fitted dose curve; in most records, active means well fitted inhibition curve with a large enough effect in the signal ratio, with a control signal flat (not every such curve was filed as active); inconclusive means small, poorly fitted or top-dose-only effect, or effect the other way, or a change in a side signal; inactive means flat fitted curve, though single readings scatter; the % refers to the signal ratio. The list shows a part of the results, in another mix than the full data.

Experiment: qHTS Assay to Find Inhibitors of Chronic Active B-Cell Receptor Signaling;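 on activity change, negative = inhibition: plate controls were basal doxycycline-induced cells for no effect and cells given 10 µM MG132 for full effect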
Conditions: ABC-DLBCL IkBa-CBG/CBR reporter, luminescence ratio (green luciferase fused to IkBa over red control in TMD8 lymphoma cells), 4 h; series mostly up to 46.1 µM; activity change, negative = inhibition: at the top concentration
How it was run: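 TMD8 ABC-DLBCL cells carrying doxycycline-inducible green luciferase fused to IkappaBalpha plus unfused red luciferase were exposed to compounds (up to 46 uM) for 4 hrs at 37C. Activity came from the overlap-corrected green/red luminescence ratio.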
Potency means the concentration at half of the fitted maximal effect.

SMILES	activity change, negative = inhibition	Potency
CCOC(=O)[C@@H]1[C@H]2COc3ccccc3[C@@H]2N2C(=O)N(c3cccc(F)c3)C(=O)[C@@]12C	inactive: 0.793%	–
CCOC(=O)[C@@H]1[C@H]2COc3cc(OC)ccc3[C@H]2N2C(=O)N(c3cccc(F)c3)C(=O)[C@]12C	inactive: 0.46%	–
COc1ccc(S(=O)(=O)NC(C)C)cc1-n1cnnn1	inactive: -0.514%	–
COCCNC(=O)CSc1nc2cc3c(cc2c(=O)n1CCCC(=O)NCCc1ccc(OC)c(OC)c1)OCO3	inactive: 15.6%	–
CCN1C(=NCc2ccco2)N[C@@H](c2cccc(F)c2)C(C(=O)OC)=C1C	inactive: -1.19%	–
Cc1ccc(C(=O)C[n+]2cc(-c3ccccc3)n3c2CCCCC3)cc1	inactive: -6.47%	–
COc1cccc(/C=N/NC(=O)c2cc3c(OC)ccc(OC)c3[nH]2)c1O	–	active: 3.16 µM
CC1=C(C(=O)OCC(C)C)C23C(=O)c4ccccc4C2(O1)OC(N)=C3C#N (stereo not given)	inactive: 9.39%	–
CCCOc1ccccc1C1CC(=O)Nc2cc3c(cc21)OCO3 (stereo not given)	–	active: 23.1 µM
COc1cc(C(=O)OC(C)CN2CCOCC2)cc(OC)c1OC (stereo not given)	inactive: -0.337%	–
COc1ccc(N=C2NC(=O)/C(=C\c3ccco3)S2)cc1	inactive: -8.08%	–
O=C1NC[C@@H](c2ccccc2)OC(=O)[C@H](Cc2ccc(F)cc2)C/C=C\C[C@H]1CC(=O)N(CCO)Cc1ccccc1	inactive: 2.84%	–
C[C@H](CO)N1C[C@H](C)[C@@H](CN(C)C(=O)Nc2ccc3c(c2)OCO3)Oc2ccc(NC(=O)C3CCCCC3)cc2C1=O	inactive: -5.67%	–
C[C@H](NC(=O)c1nc[nH]c1C(=O)N1CCN(c2ccccc2)CC1)c1ccccc1	inactive: -6.19%	–
COC(=O)/C(=C/c1c[nH]c2ccccc12)NC(C)=O	inactive: 4.37%	–
Cn1ccc2cc(-c3csc(N4CCC(C(N)=O)CC4)n3)ccc21	inactive: 3.68%	–
CCn1c(SCC(=O)N/N=C/C=C\c2ccco2)nc2ccccc21	inactive: -16.9%	–
CC(C)(C)[C@@H]1C=C(C(=O)N2CCN(Cc3ccccc3)CC2)O[C@H](OCCCCO)C1	inactive: -11.5%	–
Fc1ccccc1-c1ccc(/C=N/Nc2nc3ccccc3[nH]2)o1	–	active: 23.1 µM
Cc1cccc(C(=O)NC(C(=O)Nc2cccc(S(=O)(=O)N3CCCC3)c2)C(C)C)c1 (stereo not given)	inactive: -0.302%	–

SMILES	activity change, negative = inhibition	Potency
C[C@H]1COC(=O)[C@H](Cc2ccc(F)cc2)C/C=C\C[C@@H](CC(=O)NCCO)C(=O)N1	inactive: -1.15%	–
CCO[C@@H]1OC(C(=O)Nc2ccccc2)=C[C@H](c2ccc(C(F)(F)F)cc2)[C@H]1CCCO	inactive: 15.3%	–
COc1ccc(OC)c(S(=O)(=O)NCC(c2ccco2)S(=O)(=O)c2ccccc2)c1 (stereo not given)	inactive: 1.01%	–
CCCCCCNC(=O)N[C@H](C(=O)NCCC[C@H]1CN2C(=NC[C@H]2C)N1CCC(c1ccccc1)c1ccccc1)C(C)O (stereo not given in full)	–	active: 17.8 µM
C[C@]12C=CC(=O)C=C1CC[C@@H]1[C@@H]2C(=O)C[C@@]2(C)[C@H]1CC[C@]2(O)C(=O)CO	inactive: -15.2%	–
CCN(CC)S(=O)(=O)c1cccc(C(=O)NC(C(=O)NC2=NCCS2)C(C)C)c1 (stereo not given)	inactive: -0.862%	–
COC(C[C@@H]1O[C@@H]1[C@@H](O)COCc1ccccc1)OC	inactive: 0.559%	–
O=C(NC1CC1)C1=C[C@@H](c2c[nH]c3ccccc23)C[C@@H](OCc2ccc(CO)cc2)O1	inactive: -3.84%	–
CC(C)[C@H](NC(=O)N1CCn2c1nc1ccccc12)C(=O)N[C@@H](C(=O)O)c1ccccc1	inactive: -0.232%	–
CC(C)(C)OC(=O)C[C@@H]1C/C=C\C[C@H](CC(=O)N(CCO)Cc2ccccc2)C(=O)NC[C@@H](c2ccccc2)OC1=O	inactive: 3.74%	–
C=CCC[C@@H](Cc1ccc(F)cc1)C(=O)OC[C@@H](Cc1c[nH]c2ccccc12)NC(=O)[C@@H](CC=C)CC(=O)N[C@@H](CO)Cc1ccccc1	inactive: -0.299%	–
CS(=O)(=O)Nc1cccc(C(=O)CC2(O)C(=O)Nc3ccc(Br)cc32)c1 (stereo not given)	inactive: -15.1%	–
C[C@@H]1COC(=O)[C@H](CC(=O)OC(C)(C)C)C/C=C\C[C@H](CC(=O)NCCO)C(=O)N1	inactive: 2.89%	–
C=CC[C@H](CC(=O)NCCO)C(=O)N[C@H](COC(=O)[C@@H](CC=C)CC(=O)OC(C)(C)C)Cc1c[nH]c2ccccc12	inactive: -0.527%	–
CN(C)c1cc2c(cc1NS(=O)(=O)c1ccccc1)n(C)c(=O)n2C	inactive: -18.4%	–
C[C@@H]1COC(=O)[C@@H](CC(=O)OC(C)(C)C)C/C=C\C[C@@H](CC(=O)N[C@H](CO)Cc2ccccc2)C(=O)N1	inactive: 0.625%	–
CCCSc1nnc(Sc2nnnn2-c2ccccc2)s1	–	active: 9.2 µM
COC(=O)C1=C(C)N(Cc2ccccc2)C(=NCc2ccccc2)N[C@H]1c1ccccc1	inactive: 2.13%	–
O=C1c2c(O)cc(O)cc2O[C@H](c2ccc(O)c(O)c2)[C@H]1O	inactive: -18.6%	–
C[C@H](CO)N1C[C@H](C)[C@@H](CN(C)S(=O)(=O)c2ccccc2)Oc2ccc(NC(=O)C3CCCCC3)cc2C1=O	inactive: -4.17%	–
